Each structure is given as a SMILES string. Screen size: about 310,000 compounds; about 14,000 (4.5%) showed an effect of 50% or more. Effects have a minus sign here. This is one part of the list.
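Note: peak tail current of the secondary pulse compared with the same well before compound.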

Sequence of human ether-à-go-go-related gene (hERG) potassium channel (Q12809 whole entry, looked up): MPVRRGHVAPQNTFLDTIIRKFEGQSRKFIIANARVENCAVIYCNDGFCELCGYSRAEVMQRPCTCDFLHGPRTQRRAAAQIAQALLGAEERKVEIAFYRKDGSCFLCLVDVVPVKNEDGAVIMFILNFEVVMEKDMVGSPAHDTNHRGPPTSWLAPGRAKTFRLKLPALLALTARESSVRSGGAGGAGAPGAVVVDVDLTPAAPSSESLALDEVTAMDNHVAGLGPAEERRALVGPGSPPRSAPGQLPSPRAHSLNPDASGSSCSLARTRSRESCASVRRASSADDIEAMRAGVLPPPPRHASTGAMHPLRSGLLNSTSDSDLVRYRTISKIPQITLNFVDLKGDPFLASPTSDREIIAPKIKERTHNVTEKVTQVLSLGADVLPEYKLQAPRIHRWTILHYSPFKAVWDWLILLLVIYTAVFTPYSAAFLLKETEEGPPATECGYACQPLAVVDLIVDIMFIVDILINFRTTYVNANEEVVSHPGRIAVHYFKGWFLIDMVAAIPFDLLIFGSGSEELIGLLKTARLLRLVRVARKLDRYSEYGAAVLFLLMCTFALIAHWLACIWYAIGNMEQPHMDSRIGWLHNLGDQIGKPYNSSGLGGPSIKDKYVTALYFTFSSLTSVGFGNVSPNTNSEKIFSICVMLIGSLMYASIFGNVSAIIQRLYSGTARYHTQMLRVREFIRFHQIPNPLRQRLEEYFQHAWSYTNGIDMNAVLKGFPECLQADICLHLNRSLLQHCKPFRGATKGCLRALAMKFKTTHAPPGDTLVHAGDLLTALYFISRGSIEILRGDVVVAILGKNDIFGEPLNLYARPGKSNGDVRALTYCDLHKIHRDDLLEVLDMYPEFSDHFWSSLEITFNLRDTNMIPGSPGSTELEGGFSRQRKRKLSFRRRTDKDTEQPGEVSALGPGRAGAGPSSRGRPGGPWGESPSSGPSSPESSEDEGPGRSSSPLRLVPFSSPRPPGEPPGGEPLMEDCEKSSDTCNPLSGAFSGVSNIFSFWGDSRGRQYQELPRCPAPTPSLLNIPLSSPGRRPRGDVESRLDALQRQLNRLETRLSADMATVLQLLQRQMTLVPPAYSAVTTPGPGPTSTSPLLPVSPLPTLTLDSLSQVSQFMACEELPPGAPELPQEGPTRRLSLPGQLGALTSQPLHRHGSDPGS

This assay has as its target human ether-à-go-go-related gene (hERG) potassium channel (human, UniProt Q12809). The assay can be described thus: primary screen, population patch clamp on CHO cells stably expressing hERG.
In the case of `O=C(COc1ccc(Cl)cc1)Nc1ccc2c(c1)CCC2`, the “hERG current change (%, negative = inhibition) at 10uM” value is 0.759%.

`CC(C)(C)C1CCC(=NNC(=O)c2ccco2)CC1` (stereo not shown): the “hERG current change (%, negative = inhibition) at 10uM” value was 13.3%.

In the case of `CCN(CC)CCCNc1cc2n(c(=O)n1)CCc1cc(OC)c(OC)cc1-2`, the “hERG current change (%, negative = inhibition) at 10uM” value is reported as -7.63%.

As for `CCC[C@H](CN[C@@H](CNC)[C@H](C)CC)NCCc1cc(C(F)(F)F)cc(C(F)(F)F)c1`, the “hERG current change (%, negative = inhibition) at 10uM” value is -20.8%.

With `CC(C)CC(=O)Nc1ccc(Nc2ccccc2)cc1`, the “hERG current change (%, negative = inhibition) at 10uM” value is -25.3%.

Regarding `CCOC(=O)C1=C(N)Oc2cc(O)ccc2C1c1ccccc1` (stereo not shown), the “hERG current change (%, negative = inhibition) at 10uM” value was 17.3%.

`CCc1cccc(NC(=S)N(CCOC)C2CCN(C(C)=O)CC2)c1`: the “hERG current change (%, negative = inhibition) at 10uM” value is on record as -8.26%.

On to `Cc1ccc(-c2cnn(-c3ccccc3)c2N)cc1`, for which the “hERG current change (%, negative = inhibition) at 10uM” value turned out to be 7.66%.

With `C=CCNC(=O)c1onc(CSc2ccccc2C)c1C(=O)O`, the “hERG current change (%, negative = inhibition) at 10uM” value was -14.3%.

Consider `OC12CCCCC1C(c1ccccc1)NCC2` (stereo not shown), for which the “hERG current change (%, negative = inhibition) at 10uM” value was 3.01%.

For the molecule `COc1ccc(N2CCN(C(=O)COc3cccc4ccccc34)CC2)cc1`, the “hERG current change (%, negative = inhibition) at 10uM” value is listed as -28.3%.

As for `Cc1nc2ccc(NS(=O)(=O)c3ccccc3Cl)cc2s1`, the “hERG current change (%, negative = inhibition) at 10uM” value stood at 4.43%.

As to `COc1ccc(/C=N/Nc2nc(Nc3ccccc3)nc(N3CCCC3)n2)cc1[N+](=O)[O-]`, the “hERG current change (%, negative = inhibition) at 10uM” value worked out at 3.37%.

As to `Cn1nc(C2CC2)cc1NC(=O)CC(CC(=O)O)c1ccccc1` (stereo not shown), the “hERG current change (%, negative = inhibition) at 10uM” value came out at 9.38%.

Consider `COC(=O)c1[nH]c2ccc(C)cc2c1NC(=O)CN1CCCc2ccccc21`, for which the “hERG current change (%, negative = inhibition) at 10uM” value is listed as -1.47%.

For the molecule `c1ccc(Cn2nnc3cnccc32)cc1`, the “hERG current change (%, negative = inhibition) at 10uM” value turned out to be 2.3%.

As for `C/C(=N\NC(=O)c1ccc(NS(=O)(=O)c2cccs2)cc1)c1ccc(Cl)cc1`, the “hERG current change (%, negative = inhibition) at 10uM” value is listed as -16.5%.

With `Cc1ccc(Cl)cc1NC(=O)CCNC(=O)N1CC(=O)Nc2ccccc21`, the “hERG current change (%, negative = inhibition) at 10uM” value came to 7.61%.

Turning to `COCCN1C(=O)C(=O)/C(=C(/O)c2ccc(S(=O)(=O)N3CCOCC3)cc2)C1c1ccc(O)c(OC)c1` (stereo not shown), the “hERG current change (%, negative = inhibition) at 10uM” value came to 17.1%.

For `CN(CC(=O)Nc1cccc(F)c1)C(=O)c1ccc(-c2cccc(C(F)(F)F)c2)o1`, the “hERG current change (%, negative = inhibition) at 10uM” value was 12.3%.

For the molecule `CC(=O)c1cccc(NC(=O)CNC(=O)c2sc3ccccc3c2Cl)c1`, the “hERG current change (%, negative = inhibition) at 10uM” value is listed as -1.2%.

In the case of `CCOC(=O)NN1C(=O)c2ccccc2NC1c1ccccc1O` (stereo not shown), the “hERG current change (%, negative = inhibition) at 10uM” value came out at 14.4%.

Take `Cc1ccc(C2=NS(=O)(=O)N(C)C(C(=O)NC(C)c3ccccc3)=C2)cc1` (stereo not shown): the “hERG current change (%, negative = inhibition) at 10uM” value is recorded as -4.18%.

For the molecule `O=C(c1ccccc1)c1c[nH]cc1-c1ccccc1`, the “hERG current change (%, negative = inhibition) at 10uM” value was 0.144%.

In the case of `Cc1cccc(NC(=O)CSc2nnc([C@@H](N)Cc3ccccc3)o2)c1C.Cl`, the “hERG current change (%, negative = inhibition) at 10uM” value was 7.45%.

For `Cc1cc(NC(=O)COC(=O)C2COc3ccccc3O2)no1` (stereo not shown), the “hERG current change (%, negative = inhibition) at 10uM” value stood at 15.9%.

Consider `CCCCn1c(N)c(N(Cc2ccccc2OC)C(=O)CCC(C)C)c(=O)[nH]c1=O`, for which the “hERG current change (%, negative = inhibition) at 10uM” value is -24.7%.

Consider `COc1ccc(C(=O)c2cnc(C(C)C)n2C)cc1`, for which the “hERG current change (%, negative = inhibition) at 10uM” value was 2.51%.

`Cc1c(C=O)c2ccccc2n1CC(=O)O`: the “hERG current change (%, negative = inhibition) at 10uM” value is listed as 30.1%.

As for `CCCCC(=O)Nc1ccc(C(=O)NCCc2ccccc2)cc1`, the “hERG current change (%, negative = inhibition) at 10uM” value was -9.95%.

For `CC(=O)OCCNC(=O)c1cccnc1`, the “hERG current change (%, negative = inhibition) at 10uM” value is given as 6.8%.

For the molecule `COC(=O)c1nnc(-c2ccccc2)c(-c2ccccc2)n1`, the “hERG current change (%, negative = inhibition) at 10uM” value was 1.41%.

Consider `CCCOc1nc2ccccc2cc1/C=C/C(=O)O`, for which the “hERG current change (%, negative = inhibition) at 10uM” value is 11.8%.

On to `CC(OC(=O)CNC(=O)c1ccco1)C(=O)N(C)c1ccccc1` (stereo not shown), for which the “hERG current change (%, negative = inhibition) at 10uM” value was 6.75%.

On to `CC(C)[C@H](NC(=O)c1ccccc1F)C(=O)Nc1nc2c(s1)CCCC2`, for which the “hERG current change (%, negative = inhibition) at 10uM” value is -10.5%.

In the case of `CCOC(=O)Cc1csc(NC(=O)CN(C)S(=O)(=O)c2cccc3cccnc23)n1`, the “hERG current change (%, negative = inhibition) at 10uM” value is reported as -17.6%.

As to `O=C(CSc1nnc(-c2ccc(S(=O)(=O)N3CCOCC3)cc2)o1)c1ccccc1F`, the “hERG current change (%, negative = inhibition) at 10uM” value is on record as 1.84%.

For the molecule `Cc1noc(C)c1C(=O)OCC(=O)N1CCN(S(=O)(=O)c2ccc3ccccc3c2)CC1`, the “hERG current change (%, negative = inhibition) at 10uM” value is -0.697%.

As to `COc1ccccc1NC(=O)c1ccccc1Nc1ccccc1`, the “hERG current change (%, negative = inhibition) at 10uM” value is recorded as 22.6%.

In the case of `COc1ccc(C(CNC(=O)CSc2ccccc2C)N(C)C)cc1` (stereo not shown), the “hERG current change (%, negative = inhibition) at 10uM” value is reported as -3.49%.

Regarding `COC(=O)[C@H](C)NC(=O)NCc1ccco1`, the “hERG current change (%, negative = inhibition) at 10uM” value is reported as -1.49%.

As for `O=C(c1cc(COc2cccc3cnccc23)on1)N1CCCC(CCCO)C1` (stereo not shown), the “hERG current change (%, negative = inhibition) at 10uM” value is -41.2%.

With `COCc1cc(C)nc(SCc2ccc(F)cc2)c1C#N`, the “hERG current change (%, negative = inhibition) at 10uM” value is given as 17.1%.

As for `CC(=O)Nc1ccc(S(=O)(=O)Nc2ccc3c(c2)OCCO3)cc1`, the “hERG current change (%, negative = inhibition) at 10uM” value is listed as 25.9%.

Take `CCc1ccc(Nc2nnc(SCC(=O)Nc3sccc3C(N)=O)s2)cc1`: the “hERG current change (%, negative = inhibition) at 10uM” value was -9.35%.

`Cc1cc2cc(CN(C(=O)C3CC3)C3CCCC3)c3nnnn3c2cc1C`: the “hERG current change (%, negative = inhibition) at 10uM” value is -16.1%.

Values taken from publication PMC4336329 (PLoS ONE, 2015).
